What all share (test): co-IP; GFP-trap beads on lysates of U-2 OS cells expressing mVenus-VPS37A constructs; 0.5% NP-40 lysis buffer (10 mM Tris-HCl pH 7.5, 150 mM NaCl, 0.5 mM EDTA); washed three times with 0.05% NP-40 buffer; immunoblotting
For orientation: In western blotting, separated proteins are transferred to a membrane and probed.

Chains of the proteins cited; added tags and fusions are not shown. Lines headed by an entry give the natural chain unless they say otherwise; changes in a name come on top.
UniProt Q8NEZ2: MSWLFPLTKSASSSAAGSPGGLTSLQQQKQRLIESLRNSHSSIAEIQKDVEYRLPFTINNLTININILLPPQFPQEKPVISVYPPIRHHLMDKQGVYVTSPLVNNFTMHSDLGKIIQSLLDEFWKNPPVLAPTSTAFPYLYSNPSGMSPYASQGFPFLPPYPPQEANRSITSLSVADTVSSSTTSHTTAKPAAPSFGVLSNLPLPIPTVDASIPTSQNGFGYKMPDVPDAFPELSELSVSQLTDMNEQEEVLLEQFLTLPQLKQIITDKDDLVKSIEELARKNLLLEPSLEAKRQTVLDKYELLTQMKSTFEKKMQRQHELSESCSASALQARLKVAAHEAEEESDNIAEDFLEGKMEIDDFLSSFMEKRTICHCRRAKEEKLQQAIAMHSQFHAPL
UniProt Q9UK41: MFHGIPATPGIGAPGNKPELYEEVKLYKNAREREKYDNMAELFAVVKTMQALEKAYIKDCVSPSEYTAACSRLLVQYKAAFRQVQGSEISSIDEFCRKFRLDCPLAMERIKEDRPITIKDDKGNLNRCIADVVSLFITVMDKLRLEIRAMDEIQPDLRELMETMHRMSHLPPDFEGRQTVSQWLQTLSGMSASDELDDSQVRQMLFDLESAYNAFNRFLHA
UniProt Q99816: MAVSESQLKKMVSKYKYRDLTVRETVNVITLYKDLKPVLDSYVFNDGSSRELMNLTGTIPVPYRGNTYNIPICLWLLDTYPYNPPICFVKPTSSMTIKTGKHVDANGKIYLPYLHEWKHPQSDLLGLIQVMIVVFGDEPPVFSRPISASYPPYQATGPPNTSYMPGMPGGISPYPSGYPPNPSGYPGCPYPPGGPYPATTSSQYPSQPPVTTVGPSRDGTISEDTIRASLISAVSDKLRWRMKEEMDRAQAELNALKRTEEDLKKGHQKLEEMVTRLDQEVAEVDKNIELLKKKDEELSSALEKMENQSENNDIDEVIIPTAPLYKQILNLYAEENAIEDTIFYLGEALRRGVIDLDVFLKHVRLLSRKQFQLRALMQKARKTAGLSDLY

The target in test [1] is T1, mVenus-mVPS37A FL (WT) (mouse) (UniProt Q8CHS8).
T1 sequence: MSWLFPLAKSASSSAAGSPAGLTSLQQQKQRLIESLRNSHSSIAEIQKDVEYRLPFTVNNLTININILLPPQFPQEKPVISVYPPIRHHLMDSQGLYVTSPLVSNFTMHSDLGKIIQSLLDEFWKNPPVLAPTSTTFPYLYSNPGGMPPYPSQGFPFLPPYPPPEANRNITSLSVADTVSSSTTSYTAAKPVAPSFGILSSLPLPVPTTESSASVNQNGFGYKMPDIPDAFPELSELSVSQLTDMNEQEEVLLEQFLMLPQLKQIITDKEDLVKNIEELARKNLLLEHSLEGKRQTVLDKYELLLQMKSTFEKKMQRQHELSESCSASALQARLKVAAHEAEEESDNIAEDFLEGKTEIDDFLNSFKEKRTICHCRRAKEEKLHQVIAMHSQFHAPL

Test [2] concerns the target T2, mVenus-mVPS37A Δ43–139 (Mut) (mouse) (UniProt Q8CHS8).
T2 sequence: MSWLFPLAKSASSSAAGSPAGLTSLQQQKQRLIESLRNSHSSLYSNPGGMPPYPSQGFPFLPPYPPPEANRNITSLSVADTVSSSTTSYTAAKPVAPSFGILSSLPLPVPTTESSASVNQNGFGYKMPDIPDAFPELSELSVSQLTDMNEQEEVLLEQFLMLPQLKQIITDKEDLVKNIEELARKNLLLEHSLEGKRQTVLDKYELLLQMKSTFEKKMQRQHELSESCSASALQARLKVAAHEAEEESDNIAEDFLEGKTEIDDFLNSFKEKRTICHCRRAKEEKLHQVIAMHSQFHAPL

Test [3] has as its target mVenus-hVPS37A K382D (human) (UniProt Q8NEZ2).
Test [4] addresses mVenus-hVPS37A WT (human) (UniProt Q8NEZ2).
Test [5] concerns the target T1, mVenus-mVPS37A FL (WT) (mouse). This is another data set of the same source.
Test [6] concerns the target T2, mVenus-mVPS37A Δ43–139 (Mut) (mouse). This is another data set of the same source.

Where two headings read alike, the source gives them in different places. No constants are given. Whether binding was seen depends on the method and setting. In cells and extracts the contact can be indirect. Some entries that bind do so weakly or less than the wild type.

Regarding VPS28 (from UniProt Q9UK41 1-221), the binding result in test [1] and in test [2] was “binds” each time.

Turning to TSG101 (from UniProt Q99816 1-390), the binding result in test [1] and in test [2] was “binds” in each case.

B1: UBAP1 (protein, UniProt Q9NZ09 1-502)
chain: MASKKLGADFHGTFSYLDDVPFKTGDKFKTPAKVGLPIGFSLPDCLQVVREVQYDFSLEKKTIEWAEEIKKIEEAEREAECKIAEAEAKVNSKSGPEGDSKMSFSKTHSTATMPPPINPILASLQHNSILTPTRVSSSATKQKVLSPPHIKADFNLADFECEEDPFDNLELKTIDEKEELRNILVGTTGPIMAQLLDNNLPRGGSGSVLQDEEVLASLERATLDFKPLHKPNGFITLPQLGNCEKMSLSSKVSLPPIPAVSNIKSLSFPKLDSDDSNQKTAKLASTFHSTSCLRNGTFQNSLKPSTQSSASELNGHHTLGLSALNLDSGTEMPALTSSQMPSLSVLSVCTEESSPPNTGPTVTPPNFSVSQVPNMPSCPQAYSELQMLSPSERQCVETVVNMGYSYECVLRAMKKKGENIEQILDYLFAHGQLCEKGFDPLLVEEALEMHQCSEEKMMEFLQLMSKFKEMGFELKDIKEVLLLHNNDQDNALEDLMARAGAS
On to B1, for which the binding result is “no binding” in test [3], “binds” in test [4], “binds” in test [5] and “binds” in test [6].

These data come from PMC11748760.
